Measurements: article PMC4336329 (PLoS ONE, 2015)
Among all 310,000 compounds or so, about 2,200 (0.71%) showed an effect of 50% or more. Effects have a minus sign here. Some of the results follow.

These compounds were tested against human ether-à-go-go-related gene (hERG) potassium channel (human, UniProt Q12809) (assay: primary screen, population patch clamp on CHO cells stably expressing hERG).
human ether-à-go-go-related gene (hERG) potassium channel, sequence (Q12809 whole entry, looked up): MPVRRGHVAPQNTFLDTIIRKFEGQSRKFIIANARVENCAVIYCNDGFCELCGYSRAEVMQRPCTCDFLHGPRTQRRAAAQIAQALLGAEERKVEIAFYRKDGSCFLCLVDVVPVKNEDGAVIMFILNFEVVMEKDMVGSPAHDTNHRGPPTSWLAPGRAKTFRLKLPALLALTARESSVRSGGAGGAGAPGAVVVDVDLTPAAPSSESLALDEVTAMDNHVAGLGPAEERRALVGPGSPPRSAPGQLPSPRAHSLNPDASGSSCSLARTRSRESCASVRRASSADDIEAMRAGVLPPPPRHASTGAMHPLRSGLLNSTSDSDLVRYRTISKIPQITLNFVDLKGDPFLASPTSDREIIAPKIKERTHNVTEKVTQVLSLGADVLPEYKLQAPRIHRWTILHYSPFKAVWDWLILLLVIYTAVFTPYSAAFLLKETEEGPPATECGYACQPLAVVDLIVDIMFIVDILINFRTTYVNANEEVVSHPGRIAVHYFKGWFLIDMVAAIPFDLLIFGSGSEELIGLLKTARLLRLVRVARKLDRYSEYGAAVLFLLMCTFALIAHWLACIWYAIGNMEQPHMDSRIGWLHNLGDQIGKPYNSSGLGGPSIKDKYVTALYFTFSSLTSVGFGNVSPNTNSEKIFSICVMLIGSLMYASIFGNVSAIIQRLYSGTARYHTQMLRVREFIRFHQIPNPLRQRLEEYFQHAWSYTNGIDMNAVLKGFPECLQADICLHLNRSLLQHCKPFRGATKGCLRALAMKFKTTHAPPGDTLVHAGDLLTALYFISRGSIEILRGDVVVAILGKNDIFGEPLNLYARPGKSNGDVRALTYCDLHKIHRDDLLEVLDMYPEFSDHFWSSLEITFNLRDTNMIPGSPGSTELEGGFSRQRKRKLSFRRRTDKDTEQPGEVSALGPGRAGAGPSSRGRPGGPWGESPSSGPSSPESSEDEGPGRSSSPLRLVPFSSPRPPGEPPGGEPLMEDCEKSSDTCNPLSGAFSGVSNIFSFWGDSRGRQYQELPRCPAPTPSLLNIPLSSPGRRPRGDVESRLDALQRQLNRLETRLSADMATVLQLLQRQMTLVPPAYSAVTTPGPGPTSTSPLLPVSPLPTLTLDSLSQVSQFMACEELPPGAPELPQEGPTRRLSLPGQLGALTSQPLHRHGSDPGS

SMILES	hERG current change (%, negative = inhibition) at 1uM [%]
CN(C(=O)COc1ccccc1C(=O)NCCOc1ccccc1)c1ccccc1	2.67
COc1ccc(-c2cn(CCO)c(-c3ccncc3)n2)cc1	14.8
Oc1cc(Cl)cc(Cl)c1Cl	10.1
CCCN(C(=O)CSc1nnnn1-c1ccccc1OC)C1CCS(=O)(=O)C1 (stereo not drawn)	-8.85
Cc1c(C(=O)Nc2ccc(Br)cc2)cnn1C	-0.426
CC(C)(C)c1nnc(NC(=O)Nc2ccc(Cl)cc2)s1	10.3
Cc1nc2ccccc2c2c1C(=O)N(C(C)C)C2=O	8.94
Cc1ccc(C)n1-n1c(C)nc2sc(-c3ccccc3)cc2c1=O	10.9
COc1ccc(CNC(=O)Cn2nc(C)n3cccc3c2=O)cc1	7.29
COc1ccc2[nH]c3c(=O)n(N)c(C)nc3c2c1	1.42
O=C(Nc1ccc(F)cc1)Oc1ccccc1N1CCOCC1	22.8
CCOC(=O)Cn1nnnc1CN(Cc1cccs1)Cc1cc2cc(C)ccc2[nH]c1=O	-1.97
CCOC(=O)N1CCC(NC(=O)c2csc3c2CCCC3)CC1	-1.53
CC(=O)c1cnc2nc(C)nn2c1C	10.3
CC1(C)C(=O)C2(CCCCC2)C(=O)OC1c1cccs1 (stereo not drawn)	18.4
O=C(CCCN1C(=O)/C(=C/c2cccc(Br)c2)SC1=S)Nc1ccccn1	10.2
O=P(OC1CCCCC1)(OC1CCCCC1)C(O)c1cccnc1 (stereo not drawn)	3.64
COC(=O)CNc1ccc2c(c1)OCO2	11
CCCN(CCC)CCNC(=O)c1cc2c(C)nc3ccccc3c2o1	-17.1
CC1Cc2ccccc2N1CC(=O)NC(=O)NC(C)(C)C (stereo not drawn)	8.37
Nc1nc(-c2ccc(Br)s2)c(Br)s1	15.1
Cc1ccc(N2C(=O)CC(Sc3ncccn3)C2=O)cc1C (stereo not drawn)	2.97
O=C(CCNS(=O)(=O)c1ccccc1C(F)(F)F)N1CCN(c2ccccc2O)CC1	-7.89

SMILES	hERG current change (%, negative = inhibition) at 1uM [%]
Cc1cc(OC(=O)c2cc(C(F)(F)F)cc(C(F)(F)F)c2)c([N+](=O)[O-])c(=O)[nH]1	6.51
COC(Cc1nnc(SC)n1-c1ccccc1)OC	-5.89
CC(C)c1ccccc1NC(=O)COC(=O)c1c2c(nc3ccccc13)CCN(Cc1ccccc1)C2	11.3
Cc1cc(=O)oc2ccc(OCC(=O)N3CCC(C)CC3)cc12	6.24
Cc1ccccc1S(=O)(=O)NC1=NCCCCC1	5.13
COc1ccccc1-c1nnc2n1N=C(c1ccc(O)c(O)c1)CS2	-1.46
O=C(Nc1cccc(S(=O)(=O)N2CCOCC2)c1)c1cc2ccccc2o1	-3.76
COc1ccc(CNC(=O)N[C@@H](Cc2c[nH]c3ccccc23)C(=O)O)cc1	9.53
CCN1CCN(c2ccc(N3CCN(S(=O)(=O)c4cc([N+](=O)[O-])ccc4C)CC3)nn2)CC1	-17.2
COc1ccc(NC(=S)N(Cc2cccnc2)Cc2ccco2)cc1	-3.05
CCOc1cccc(C2C(C(=O)c3ccco3)=C(O)C(=O)N2Cc2ccncc2)c1 (stereo not drawn)	20.5
CCOCCCNC(=O)c1ccc(NC(=O)C2=CSCCO2)cc1	14.6
Cc1ccccc1C(=O)NC1CCN(CC(=O)Nc2ccc3c(c2)OCO3)CC1	-11
COc1ccc(N(C(=O)c2ccn[nH]2)C(C(=O)NC(C)(C)C)c2ccc(F)cc2)cc1 (stereo not drawn)	19.5
CCc1ccccc1N1C(=O)C(Cl)=C(N2CCOCC2)C1=O	16.2
COCCn1c(SCc2cc(C(C)=O)ccc2OC)nc2cc(Cl)ccc2c1=O	2.65
Cc1cc(C)cc(C(=O)Nc2ccc(N3CCCC3)cc2)c1	8.36
O=C1CN(C(=O)COC(=O)CCSc2ccccc2Cl)c2ccccc2N1	10.2
COc1ccc(NC(=O)C2CC2)cc1S(=O)(=O)N1CCOCC1	-18.8
COc1ccc(S(=O)(=O)NC2CCCCCC2)c(OC)c1	8.39
O=c1[nH]c(=S)n(Cc2ccc(F)cc2)c(O)c1C=NCc1cccnc1	7.39
O=C(CNc1cccc2ccccc12)N/N=C/c1cccc(Oc2ccccc2)c1	14.8
COc1cccc(NS(=O)(=O)c2c(C)n(C)c(=O)n(C)c2=O)c1	-10.1

SMILES	hERG current change (%, negative = inhibition) at 1uM [%]
N/C(=N\c1nc2c(c(=O)[nH]1)CCC2)Nc1ccccc1	3.8
CCC1(C)Cc2c(sc3nc4n(c(=O)c23)CCCS4)CO1 (stereo not drawn)	-2.06
CC(C)=N/N=C(/c1ccc([N+](=O)[O-])cc1)C12CN3CN(CN(C3)C1)C2	7.82
CCN1CCN(C(c2ccc(F)cc2)c2nnnn2Cc2cccs2)CC1 (stereo not drawn)	-29.9
Nc1ccc(-c2ccc(N)c(C(=O)O)c2)cc1C(=O)O	1.09
CN(C)C(=O)C1C2NC(=S)N(c3ccc(Cl)cc3)C1(C)Oc1ccc(Cl)cc12 (stereo not drawn)	11.5
Cc1ccccc1-n1nc(C)c2c(C(=O)NN)cc(-c3ccncc3)nc21	10.5
CC(=O)Nc1ccc(NC(=O)C/C(C)=N/NC(=O)c2cccc3ccccc23)cc1	8.03
COc1cc(OC)c(OC)cc1/C=N/NC(=O)CSc1ccccc1F	2.29
COc1ccc(NC(=O)N2CCC(n3cnc4ccccc43)CC2)cc1	-8.51
CC(C)(C)c1ccc(OCCCC(=O)Nc2ccc(S(N)(=O)=O)cc2)cc1	0.457
CCOc1ccccc1OCC(=O)Nc1ccc(S(=O)(=O)Nc2nc(C)cc(C)n2)cc1	0.94
COc1cc2c(cc1OC)CN(C(=O)CN1CCN(S(=O)(=O)c3ccccc3)CC1)CC2	4.2
CCCOc1ccc(C(=O)NCCCn2ccnc2)cc1	-1.56
O=C(COC(=O)c1ccc(Br)o1)NCCNC(=O)COC(=O)c1ccc(Br)o1	13.4
O=C(C[n+]1ccc(C(=O)c2ccccc2)cc1)Nc1ccc(C(F)(F)F)cc1.[Cl-]	4.51
CCOC(=O)COn1c(=O)c(-c2ccc(OC)c(OC)c2)[n+]([O-])c2ccccc21	3.94
CCCn1c(SCC(=O)N(C)CC(=O)Nc2ccc(Cl)cc2)n[nH]c1=O	2.06
O=C(COC(=O)c1ccc(NS(=O)(=O)c2cccs2)cc1O)NCc1ccccc1	1.51
COc1cccc(N2CC(C(=O)Oc3ccc4ccccc4c3)CC2=O)c1 (stereo not drawn)	5.81
COC(=O)CCCC1=CC2=C(c3ccccc3)C(=O)C(C)(OC(=O)C3CCCC3)C(=O)C2=CN1CC1CC1 (stereo not drawn)	-10.6
CCC(=S)/C=C1\Sc2ccccc2N1CCCS(=O)(=O)[O-].[Na+]	8.37
CCOC(=O)c1sc2nc(C3CC3)cc(-c3ccc(F)cc3)c2c1N	13.3

SMILES	hERG current change (%, negative = inhibition) at 1uM [%]
Cc1cc(OC(C)C(=O)NCc2cccnc2)c2c3c(c(=O)oc2c1)CCC3 (stereo not drawn)	13
CC(C)N(C)Cc1nnnn1CC(=O)N(C)Cc1cccc(Cl)c1	17.8
CCSC1=N/C(=C\c2ccc3c(c2)OCO3)C(=O)S1	9.97
CC(C)(C(=O)c1ccccc1)/[N+]([O-])=C/c1ccc(F)cc1	0.438
COc1ccc(C2CC(=O)N3CN(Cc4ccco4)CSC3=C2C#N)cc1 (stereo not drawn)	11.6
C/C(=N\NC(=O)C1CC1)c1ccc(C)cc1C	10
O=c1cc(CSc2nnc(COc3ccccc3Cl)o2)nc2sccn12	-9.18
CC(=O)N(Cc1ccccn1)Cc1ccco1	5.11
O=C(Nc1nc2ccc3ccccc3c2s1)c1ccc(N2CCCCC2)c([N+](=O)[O-])c1	7.17
COc1ccc(NC(=O)c2csc(Cc3ccccc3)n2)cc1	1.65
Cc1ccc(C2CC(C(F)(F)F)n3nc(C(=O)NCCN4CCOCC4)cc3N2)cc1 (stereo not drawn)	11.3
Cc1cc(C)nc(N2CCC(CNC(=O)CCc3ccccc3)CC2)n1	20.4
COc1ccc(NC(=S)Nc2cccc3ccccc23)cc1OC	14.9
O=C(CSc1nnc2ccccn12)NNC(=O)c1ccc(Cl)cc1	1.82
NC(=O)c1cnn(-c2ccc3ccccc3c2)c1N	1.36
O=C(Nc1nnc(SCc2ccccc2)s1)c1cccs1	13.2
Cc1nn(C2CCS(=O)(=O)C2)c(C)c1CN(C)C(=O)c1ccccc1 (stereo not drawn)	7.94
COc1ccc(O)c(C(=O)c2cnc3c(c2)c(C)nn3C)c1	18.9
O=C(CSc1nnc(COc2ccccc2)o1)Nc1ccc(F)cc1	16.4
CC(=O)c1cccc(NC(=O)Cc2cccs2)c1	5.07
COc1cccc(OC)c1C(=O)N1CCN(C(=O)c2ccc(-c3ccccc3)cc2)CC1	10.7
